Article PMC4775073
Positions count from the first letter of the chain named. Results are given in words; binding and its absence hold for the method and conditions named. In cells and extracts the contact can be indirect. Some entries that bind do so weakly or less than the wild type. For some assays here: Tags and fused reporters may be left off the sequences shown.

The chains behind the UniProt entries cited, without tags or fusion partners. Where a name states a change or a piece, a line headed by the entry shows the natural chain unless it says otherwise. A line that says so, or that is headed by a name, gives the form on record, which may keep a tag or linker.
UniProt Q07157: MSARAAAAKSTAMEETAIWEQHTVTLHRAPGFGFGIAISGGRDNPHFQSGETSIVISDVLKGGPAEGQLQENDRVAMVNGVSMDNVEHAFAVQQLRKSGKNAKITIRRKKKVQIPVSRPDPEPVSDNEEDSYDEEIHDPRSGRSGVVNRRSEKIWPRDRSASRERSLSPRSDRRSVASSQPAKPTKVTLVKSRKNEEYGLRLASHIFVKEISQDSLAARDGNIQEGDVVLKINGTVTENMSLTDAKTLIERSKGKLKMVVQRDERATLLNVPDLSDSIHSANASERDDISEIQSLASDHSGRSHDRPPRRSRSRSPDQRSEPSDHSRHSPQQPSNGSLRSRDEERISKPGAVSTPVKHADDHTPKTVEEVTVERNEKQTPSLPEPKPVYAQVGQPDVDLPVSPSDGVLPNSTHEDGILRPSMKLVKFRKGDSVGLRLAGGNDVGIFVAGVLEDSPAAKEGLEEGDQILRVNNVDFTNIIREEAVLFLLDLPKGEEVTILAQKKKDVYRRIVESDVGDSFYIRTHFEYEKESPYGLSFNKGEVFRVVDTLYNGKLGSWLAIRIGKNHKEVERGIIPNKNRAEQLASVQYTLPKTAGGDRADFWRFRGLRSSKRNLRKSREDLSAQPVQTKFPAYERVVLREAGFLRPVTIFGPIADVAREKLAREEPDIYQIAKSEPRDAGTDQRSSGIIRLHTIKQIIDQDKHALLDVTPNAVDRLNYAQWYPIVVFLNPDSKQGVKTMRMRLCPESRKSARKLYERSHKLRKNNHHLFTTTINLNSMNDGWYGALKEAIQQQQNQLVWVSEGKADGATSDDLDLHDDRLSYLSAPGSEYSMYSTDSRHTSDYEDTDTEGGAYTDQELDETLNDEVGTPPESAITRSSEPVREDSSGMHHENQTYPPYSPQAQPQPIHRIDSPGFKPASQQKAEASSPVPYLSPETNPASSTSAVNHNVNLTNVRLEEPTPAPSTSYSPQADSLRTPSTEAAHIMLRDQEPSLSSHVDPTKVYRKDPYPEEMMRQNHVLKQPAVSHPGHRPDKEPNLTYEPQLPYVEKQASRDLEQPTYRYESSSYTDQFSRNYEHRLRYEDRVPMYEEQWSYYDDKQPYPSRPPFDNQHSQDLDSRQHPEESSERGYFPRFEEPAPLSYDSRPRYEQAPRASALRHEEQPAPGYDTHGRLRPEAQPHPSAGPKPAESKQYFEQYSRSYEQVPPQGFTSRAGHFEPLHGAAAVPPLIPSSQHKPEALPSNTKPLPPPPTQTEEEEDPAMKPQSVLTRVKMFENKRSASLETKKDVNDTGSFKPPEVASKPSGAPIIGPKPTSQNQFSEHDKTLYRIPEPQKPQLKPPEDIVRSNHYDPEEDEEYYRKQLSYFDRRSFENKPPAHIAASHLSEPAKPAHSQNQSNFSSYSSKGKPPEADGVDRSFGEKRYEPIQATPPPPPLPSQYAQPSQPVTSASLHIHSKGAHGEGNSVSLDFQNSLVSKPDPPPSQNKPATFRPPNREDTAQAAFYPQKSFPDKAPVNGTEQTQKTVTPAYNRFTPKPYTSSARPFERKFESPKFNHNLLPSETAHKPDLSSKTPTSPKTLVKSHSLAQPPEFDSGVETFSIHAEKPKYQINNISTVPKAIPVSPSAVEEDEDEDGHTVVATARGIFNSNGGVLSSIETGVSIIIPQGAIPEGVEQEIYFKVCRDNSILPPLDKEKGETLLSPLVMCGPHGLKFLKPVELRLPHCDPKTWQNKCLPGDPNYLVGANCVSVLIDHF
ZO1-∆PDZ3-EYFP (Q07157, form named): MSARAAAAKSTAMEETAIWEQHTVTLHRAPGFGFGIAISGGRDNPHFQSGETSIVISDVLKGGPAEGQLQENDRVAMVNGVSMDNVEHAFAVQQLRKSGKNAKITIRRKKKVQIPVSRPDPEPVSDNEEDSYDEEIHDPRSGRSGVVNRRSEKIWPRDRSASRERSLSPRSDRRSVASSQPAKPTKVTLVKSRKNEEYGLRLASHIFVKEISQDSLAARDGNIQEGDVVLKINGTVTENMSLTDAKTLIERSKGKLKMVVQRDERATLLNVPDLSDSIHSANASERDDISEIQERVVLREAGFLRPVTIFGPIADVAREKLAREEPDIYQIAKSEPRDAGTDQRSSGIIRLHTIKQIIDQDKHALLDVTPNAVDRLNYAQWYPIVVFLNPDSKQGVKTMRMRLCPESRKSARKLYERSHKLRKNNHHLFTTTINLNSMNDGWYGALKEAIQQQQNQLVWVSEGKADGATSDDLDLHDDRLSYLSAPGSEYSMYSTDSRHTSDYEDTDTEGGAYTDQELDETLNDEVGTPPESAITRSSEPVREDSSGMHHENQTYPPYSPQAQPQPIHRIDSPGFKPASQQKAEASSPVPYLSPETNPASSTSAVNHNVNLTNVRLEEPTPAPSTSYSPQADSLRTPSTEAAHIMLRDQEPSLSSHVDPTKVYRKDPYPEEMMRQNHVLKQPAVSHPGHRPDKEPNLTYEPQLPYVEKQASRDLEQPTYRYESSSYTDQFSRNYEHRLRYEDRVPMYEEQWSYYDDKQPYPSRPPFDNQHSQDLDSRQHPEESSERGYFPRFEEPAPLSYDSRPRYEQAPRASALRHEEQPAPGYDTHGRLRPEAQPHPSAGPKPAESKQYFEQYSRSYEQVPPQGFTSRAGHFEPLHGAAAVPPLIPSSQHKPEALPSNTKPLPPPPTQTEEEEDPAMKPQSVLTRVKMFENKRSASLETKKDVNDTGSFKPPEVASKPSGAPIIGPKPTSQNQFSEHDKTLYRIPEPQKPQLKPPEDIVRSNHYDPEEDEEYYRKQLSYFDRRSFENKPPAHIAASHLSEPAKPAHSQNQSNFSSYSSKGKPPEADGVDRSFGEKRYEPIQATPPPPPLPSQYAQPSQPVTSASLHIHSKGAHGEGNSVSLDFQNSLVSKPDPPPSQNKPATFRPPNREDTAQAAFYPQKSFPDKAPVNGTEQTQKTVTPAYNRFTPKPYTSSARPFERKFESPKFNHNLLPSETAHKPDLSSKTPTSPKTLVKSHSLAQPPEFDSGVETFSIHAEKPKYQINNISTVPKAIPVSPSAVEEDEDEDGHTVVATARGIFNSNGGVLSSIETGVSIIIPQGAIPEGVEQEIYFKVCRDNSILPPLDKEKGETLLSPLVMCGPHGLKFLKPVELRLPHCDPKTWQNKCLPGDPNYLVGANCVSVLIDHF

Experiments:
CTRwt-ECFP (human) = target: T1, CTRwt-ECFP (human) (UniProt P30988); test: FRET or BRET; acceptor photobleaching FRET microscopy in live PC-31 cells co-transfected with CTR-ECFP and ZO-1-EYFP constructs, room temperature, with or without 50 nM CT
T1 sequence: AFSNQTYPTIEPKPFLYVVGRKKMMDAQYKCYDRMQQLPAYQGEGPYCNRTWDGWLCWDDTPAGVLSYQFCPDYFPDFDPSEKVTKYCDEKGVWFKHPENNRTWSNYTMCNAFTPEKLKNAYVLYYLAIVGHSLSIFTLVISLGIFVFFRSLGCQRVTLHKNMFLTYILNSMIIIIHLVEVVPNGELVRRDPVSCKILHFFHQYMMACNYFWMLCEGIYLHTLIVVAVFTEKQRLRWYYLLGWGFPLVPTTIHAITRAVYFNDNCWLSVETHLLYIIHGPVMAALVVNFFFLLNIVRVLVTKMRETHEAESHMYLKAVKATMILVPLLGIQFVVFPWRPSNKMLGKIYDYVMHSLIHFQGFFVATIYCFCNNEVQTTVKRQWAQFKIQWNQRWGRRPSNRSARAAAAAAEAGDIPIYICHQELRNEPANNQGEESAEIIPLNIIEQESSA

CTR∆ESS-ECFP (human) = target: T2, CTR∆ESS-ECFP (human) (UniProt P30988); test: as above
T2 sequence: T1 sequence with E447A, S448A, S449A

[1] = target: T3, Calcitonin receptor (CTR), endogenous (human (endogenous in LNCaP cells and human prostate tumors)) (UniProt P30988); test: proximity ligation; in situ PLA (Duolink) on fixed LNCaP cells not stimulated with CT (LNCaP express CTR but not CT)
T3 sequence: T1 sequence

[2] = target: T3, Calcitonin receptor (CTR), endogenous (human (endogenous in LNCaP cells and human prostate tumors)); test: co-IP; snap-frozen human prostate tumor specimens homogenized (10 mg); CTR immunoprecipitated from the clarified supernatant with rabbit anti-CTR serum; ZO-1 immunoblot
[3] = target: T3, Calcitonin receptor (CTR), endogenous (human (endogenous in LNCaP cells and human prostate tumors)); test: proximity ligation; in situ PLA (Duolink) on fixed PC cells (PC-3CTRwt, PC-3CTR∆ESS, LNCaP) with anti-ZO-1 and anti-CTR sera; with/without 50 nM CT for 30 seconds; dots per cell counted

ZO1-∆PDZ3-EYFP (from UniProt Q07157 1-1748)
binding (CTRwt-ECFP (human)): no binding

ZO-1wt-EYFP (from UniProt Q07157 1-1748)
binding (CTR∆ESS-ECFP (human)): no binding

Zonula Occludens-1 (ZO-1), endogenous (from UniProt Q07157 1-1748)
binding [1]: no binding (condition: cells not stimulated with CT) | binding [2]: binds | binding [3]: binds
